Read counts are not given, so values of variants with three or more changes are uncertain.

B1: CPEB3 Ribozyme (parent)
chain: UAACAGGGGGCCACAGCAGAAGCGUUCACGUCGCAGCCCCUGUCAGAUUCUGGUGAAUCUGCGAAUUCUGCUGUAUAUCUC

Variants of B1 are the subject of this data set. Put plainly: self-cleavage, relative activity (ratio to wild type); higher = more cleavage; in vitro, sequencing. Put shortly:
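Relative activity was defined as the cleaved/total read fraction for a variant divided by the same fraction for the unmutated ribozyme. CPEB3 self-cleaving ribozyme libraries were made by rounds of error-prone PCR, barcoded, and transcribed in vitro with T7 RNA polymerase for 5 hours at 37°C, and cleavage ran through transcription plus a 15 min DNase I step before EDTA. Illumina sequencing of template-switched reverse transcripts gave the reads, and DNA sequencing mapped the barcodes. Averages come from three batches, using variants with at least 5 reads.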
In the case of UAACAGGGGGCCACAGCAGAAGCGUUCACGUCGCAGCCCCUGUCAGCUUCUGGUGCAUCUGCGAAUCCUGCUGUAUAUCUC, the self-cleavage stood at 0.09. In the case of UAACAGGGGGCCACAGCAGAAGCGUUCACGUCGCAGCCCCUGUCAGGUUCUGGUGAAACUGCGAAUUCUGCUGUAUACCUU it was 0.28; in that of UAACAGGGGGCCACAGCAGAAGCGUUCACGUCGCAGCCCCUGUCAGUUUCUGGAGAAUCAGCGAAUUCUGCUGUAUAUCCC, 0.35; in that of UAACAGGGGGCCACAGCAGAAGCGUUCACGUCGCAGCCCCUGUCAGGUUCCGGUGAAUCUGCGAAUUCUGCUGUUUACCUC, 0.63. Consider UAACAGGGGGCCACAGCAGAAGCGUUCACGUCGCAGCCCCUGUCAGGUUCUGGCGAAUCUGCGAAUUCUGCUGUGUAUCUC, for which the self-cleavage came to 0.95. On to UAACAGGGGGCCACAGCAGAAGCGUUCACGUCGCAGCCCCUGUCAGGUUCUGGCGAAUCUGCGAAUACUGCUGUAUAUCUC, for which the self-cleavage is 0.49. For UAACAGGGGGCCACAGCAGAAGCGUUCACGUCGCAGCCCCUGUCAGUUUCUGGUAAUUCUGCGGAUUCUGCUGUAUAUCUC the value was 0.1; for UAACAGGGGGCCACAGCAGAAGCGUUCACGUCGCAGCCCCUGUCAGUUUCUGGAGGAUCUGCGAAUUCUGCUGUAUAUCUC, 0.61; for UAACAGGGGGCCACAGCAGAAGCGUUCACGUCGCAGCCCCUGUCAGGUUCUGGUGAGUCUGCGAAUUCUGCUGUAUACCUC, 0.47. Consider UAACAGGGGGCCACAGCAGAAGCGUUCACGUCGCAGCCCCUGUCAGGUCCUGGUGAAUCUGCGAAUUCUGCUGUAUACCUC, for which the self-cleavage is 0.28. For UAACAGGGGGCCACAGCAGAAGCGUUCACGUCGCAGCCCCUGUCAGUUUCUGGUGAAUCUGCGUAAUCUGCUGUAUAUCUC, the self-cleavage amounted to 0.07. In the case of UAACAGGGGGCCACAGCAGAAGCGUUCACGUCGCAGCCCCUGUCAGGCUCUGGUGAAUCUGCGAAAUCAGCUGUAUAUCUC it was 0.45; in that of UAACAGGGGGCCACAGCAGAAGCGUUCACGUCGCAGCCCCUGUCAGUUUCUGGUGGGUCUGCGAAUUCUGCUGUAUAUCUC, 0.15.

UAACAGGGGGCCACAGCAGAAGCGUUCACGUCGCAGCCCCUGUCAGCUUCUGGUGAAUCUGCGAACCCUGCUGUAUAUCUC: the self-cleavage was 0.2.

As for UAACAGGGGGCCACAGCAGAAGCGUUCACGUCGCAGCCCCUGUCAGGUUCUGGUGAAACUGUGAAUUCUGCUGUAUACCUC, the self-cleavage worked out at 0.16. In the case of UAACAGGGGGCCACAGCAGAAGCGUUCACGUCGCAGCCCCUGUCAGUUCCUGGUGAAACUGCGAAUUCUGCUGUAUAUCUC it was 0.41; in that of UAACAGGGGGCCACAGCAGAAGCGUUCACGUCGCAGCCCCUGUCAGGUUCUGGUGAGUCUGCGAAUUCUGCUGAAUAUCUC, 1.03.

For the variant UAACAGGGGGCCACAGCAGAAGCGUUCACGUCGCAGCCCCUGUCAGGUUCAGGUGAAUCUGCGAAUCCUGCUGUAUAUCUC, the self-cleavage was 0.16. For the variant UAACAGGGGGCCACAGCAGAAGCGUUCACGUCGCAGCCCCUGUCAUAUUCUGGUGAAUCUACGAAUUCCGCUGUAUGUGUC, the self-cleavage was found to be 0.17. In the case of UAACAGGGGGCCACAGCAGAAGCGUUCACGUCGCAGCCCCUGUCAGUUCCUGGAGAAUCUGCGAAUUCUGCUGUUUAUCUC it was 0.17; in that of UAACAGGGGGCCACAGCAGAAGCGUUCACGUCGCAGCCCCUGUCAGGCUCUGGUGAAUCUGCGGAUUCUGCUGUAUAUCUC, 0.15; in that of UAACAGGGGGCCACAGCAGAAGCGUUCACGUCGCAGCCCCUGUCAGGUUCUGGUGAAUCUGCGAAUCCUGCUGUAUUUCUC, 0.42. Consider UAACAGGGGGCCACAGCAGAAGCGUUCACGUCGCAGCCCCUGUCAGUUCCUGGUGAAUCUGCGAGUUCUGCUGUAUAUCUC, for which the self-cleavage was 0.1. As for UAACAGGGGGCCACAGCAGAAGCGUUCACGUCGCAGCCCCUGUCAGGUUCUGAUGAAUCUGCGAAUUCUGCUGUAUAUCAC, the self-cleavage was 0.96.

With UAACAGGGGGCCACAGCAGAAGCGUUCACGUCGCAGCCCCUGUCAGGCUCUGGUGAAUCUGCGAACUCUGCUGUAUAACUC, the self-cleavage stood at 0.11. In the case of UAACAGGGGGCCACAGCAGAAGCGUUCACGUCGCAGCCCCUGUCAGUUUCAGGUGAAUCUGCGAAUUCUGCUGUAUAUCCC, the self-cleavage came out at 0.26.

Turning to UAACAGGGGGCCACAGCAGAAGCGUUCACGUCGCAGCCCCUGUCAGGCUCUGGUGAAUCUGCGAAUUCUGCUGUAUUUCUC, the self-cleavage amounted to 0.39.

Regarding UAACAGGGGGCCACAGCAGAAGCGUUCACGUCGCAGCCCCUGUCAGGUUCCGGUGAAUCUGCGAAUUCAGCUGUAUAUCUC, the self-cleavage stood at 0.44. UAACAGGGGGCCACAGCAGAAGCGUUCACGUCGCAGCCCCUGUCAGGUUCUGGUGAAUCUGUGGAUUCUGCUGUAUAACUC: the self-cleavage worked out at 0.19. For UAACAGGGGGCCACAGCAGAAGCGUUCACGUCGCAGCCCCUGUCAUAUUCUGGUGAAUCUGCGAAUUCUGCCGUAUAUGGC the value was 0.03; for UAACAGGGGGCCACAGCAGAAGCGUUCACGUCGCAGCCCCUGUCAGGUUCUGGUGUAUCUGCGAAUUCUGCUGUAUCUCUC, 0.18. For UAACAGGGGGCCACAGCAGAAGCGUUCACGUCGCAGCCCCUGUCAAAUUCUGGUGAUUAUGCGAAUUCUGCUGUAUUUCUC the value was 0.12. In the case of UAACAGGGGGCCACAGCAGAAGCGUUCACGUCGCAGCCCCUGUCAGUUCCUGGUGAAUCUGCGAAUUCUGCUGUAUACCUC it was 0.39. On to UAACAGGGGGCCACAGCAGAAGCGUUCACGUCGCAGCCCCUGUCAGUUUCUGGUGAACCUGCGAAUUCUGCUGUAUAUCCC, for which the self-cleavage amounted to 0.34.
